Measured values as given in the antibiotic and cytotoxicity screens of Wong et al. (2023).
Some of the results follow.

Columns and labels:
HSkMC = human skeletal muscle cells; assay: cytotoxicity call (relative viability < 0.9); conditions: 10 µM
HepG2 = assay: cytotoxicity call (relative viability < 0.9); conditions: 10 µM
S. aureus RN4220 = assay: growth inhibition call (relative growth <= 0.2); conditions: 50 µM

Q: Which results are given for `CCOc1nc2cccc(C(=O)O[C@@H](C)OC(=O)OC3CCCCC3)c2n1Cc1ccc(-c2ccccc2-c2nn[nH]n2)cc1`?
A: cytotoxicity call (HSkMC): inactive; cytotoxicity call (HepG2): inactive; growth inhibition call (S. aureus RN4220): active

Q: Which cytotoxicity call (HSkMC) does the source give for `CC(C)NC(=O)Nc1ccc2c(c1)C(=O)N([C@H](C)CO)C[C@@H](C)[C@@H](CN(C)C(=O)NC1CCCCC1)O2` here?
A: The cytotoxicity call was “inactive”.

Q: And the cytotoxicity call (HepG2)?
A: The cytotoxicity call was “inactive”.

Q: What about the growth inhibition call (S. aureus RN4220) of the same compound?
A: Its growth inhibition call is “inactive”.

Q: Which results are given for `COc1ccc(S(=O)(=O)Nc2ccc3c(c2)CC(=O)N([C@@H](C)CO)C[C@@H](C)[C@@H](CN(C)C)O3)cc1`?
A: cytotoxicity call (HSkMC): inactive; cytotoxicity call (HepG2): inactive; growth inhibition call (S. aureus RN4220): inactive

Q: How did the cytotoxicity call (HSkMC) turn out when `CCCCc1oc2ccc(NS(C)(=O)=O)cc2c1C(=O)c1ccc(OCCCN(CCCC)CCCC)cc1.Cl` was run?
A: Its cytotoxicity call is “active”.

Q: And the cytotoxicity call (HepG2)?
A: Its cytotoxicity call is “active”.

Q: And the growth inhibition call (S. aureus RN4220)?
A: The growth inhibition call was “inactive”.

Q: With `C[C@@H]1CN([C@H](C)CO)C(=O)c2cc(NC(=O)Nc3cccc4ccccc34)ccc2O[C@@H](C)CCCCO[C@H]1CN(C)Cc1ccc(Cl)c(Cl)c1` as the compound, how does the cytotoxicity call (HSkMC) read?
A: The cytotoxicity call was “inactive”.

Q: What about the cytotoxicity call (HepG2) of the same compound?
A: The cytotoxicity call was “inactive”.

Q: And the growth inhibition call (S. aureus RN4220)?
A: Its growth inhibition call is “inactive”.

Q: What does the source list for `CCOC(=O)CCCCCC(=O)Nc1ccc2c(c1)C(=O)N([C@@H](C)CO)C[C@H](C)[C@H](CN(C)S(=O)(=O)c1ccc(OC)cc1)OCCCC[C@H](C)O2`?
A: cytotoxicity call (HSkMC): inactive; cytotoxicity call (HepG2): inactive; growth inhibition call (S. aureus RN4220): inactive

Q: With `CC(C)C(=O)[C@@H]1C(=O)O[C@@H](c2ccoc2)[C@]2(C)[C@H](O)[C@@H](O)[C@@]34O[C@]5(C)O[C@]3([C@H]12)[C@H](O)[C@@]1(O)[C@H](O)[C@]2(C)C[C@]1(O5)[C@@]4(C)[C@H]2CC(=O)O` as the compound, how does the cytotoxicity call (HSkMC) read?
A: Its cytotoxicity call is “inactive”.

Q: And the cytotoxicity call (HepG2)?
A: Its cytotoxicity call is “active”.

Q: And the growth inhibition call (S. aureus RN4220)?
A: Its growth inhibition call is “inactive”.

Q: For `O=C1CN(C(=O)c2ccccc2)C(=S)N1`, which cytotoxicity call (HSkMC) is on record?
A: The cytotoxicity call was “inactive”.

Q: What about the cytotoxicity call (HepG2) of the same compound?
A: The cytotoxicity call was “inactive”.

Q: What about the growth inhibition call (S. aureus RN4220) of the same compound?
A: The growth inhibition call was “inactive”.

Q: How did the cytotoxicity call (HSkMC) turn out when `COc1ccc(CN(C)C[C@@H]2OCCCC[C@H](C)Oc3ccc(NS(=O)(=O)c4cccs4)cc3C(=O)N([C@H](C)CO)C[C@H]2C)cc1` was run?
A: Its cytotoxicity call is “inactive”.

Q: And the cytotoxicity call (HepG2)?
A: Its cytotoxicity call is “inactive”.

Q: What about the growth inhibition call (S. aureus RN4220) of the same compound?
A: Its growth inhibition call is “inactive”.

Q: `C[C@@H]1CCCCO[C@@H](CN(C)C(=O)Nc2ccccc2)[C@H](C)CN([C@@H](C)CO)C(=O)c2cc(NC(=O)CCC(F)(F)F)ccc2O1` was tested. Which cytotoxicity call (HSkMC) did it give?
A: Its cytotoxicity call is “inactive”.

Q: And the cytotoxicity call (HepG2)?
A: The cytotoxicity call was “inactive”.

Q: What about the growth inhibition call (S. aureus RN4220) of the same compound?
A: Its growth inhibition call is “inactive”.

Q: Which results are given for `Cc1ccc(S(=O)(=O)N(C)C[C@H]2Oc3c(NC(=O)Nc4ccc(C(F)(F)F)cc4)cccc3C(=O)N([C@@H](C)CO)C[C@H]2C)cc1`?
A: cytotoxicity call (HSkMC): active; cytotoxicity call (HepG2): active; growth inhibition call (S. aureus RN4220): inactive

Q: How did the cytotoxicity call (HSkMC) turn out when `O=C(O)c1cn(-c2ccccc2)nn1` was run?
A: Its cytotoxicity call is “inactive”.

Q: What about the cytotoxicity call (HepG2) of the same compound?
A: Its cytotoxicity call is “inactive”.

Q: What about the growth inhibition call (S. aureus RN4220) of the same compound?
A: Its growth inhibition call is “inactive”.

Q: With `Cc1ccc(S(=O)(=O)N(C)C[C@H]2OCCCC[C@H](C)Oc3ccc(NC(=O)Nc4ccc(F)cc4)cc3C(=O)N([C@H](C)CO)C[C@@H]2C)cc1` as the compound, how does the cytotoxicity call (HSkMC) read?
A: Its cytotoxicity call is “inactive”.

Q: What about the cytotoxicity call (HepG2) of the same compound?
A: Its cytotoxicity call is “inactive”.

Q: What about the growth inhibition call (S. aureus RN4220) of the same compound?
A: Its growth inhibition call is “inactive”.

Q: `COc1ccc(S(=O)(=O)Nc2ccc3c(c2)C(=O)N([C@@H](C)CO)C[C@@H](C)[C@@H](CN(C)C(=O)NC(C)C)O3)cc1` was tested. Which cytotoxicity call (HSkMC) did it give?
A: Its cytotoxicity call is “inactive”.

Q: What about the cytotoxicity call (HepG2) of the same compound?
A: The cytotoxicity call was “inactive”.

Q: And the growth inhibition call (S. aureus RN4220)?
A: The growth inhibition call was “inactive”.

Q: With `C[C@@H]1CCCCO[C@H](CN(C)CC2CCCCC2)[C@H](C)CN([C@H](C)CO)C(=O)c2cc(NC(=O)Nc3cccc4ccccc34)ccc2O1` as the compound, how does the cytotoxicity call (HSkMC) read?
A: Its cytotoxicity call is “active”.

Q: And the cytotoxicity call (HepG2)?
A: The cytotoxicity call was “active”.

Q: What about the growth inhibition call (S. aureus RN4220) of the same compound?
A: The growth inhibition call was “inactive”.

Q: Which results are given for `CCC(=O)Nc1ccc2c(c1)OC[C@@H](C)N(Cc1ccc(-c3ccccn3)cc1)C[C@@H](C)[C@H](OC)CN(C)C2=O`?
A: cytotoxicity call (HSkMC): inactive; cytotoxicity call (HepG2): inactive; growth inhibition call (S. aureus RN4220): inactive

Q: What does the source list for `C[C@@H]1CCCCO[C@@H](CN(C)Cc2ccc(C(=O)Nc3ccccc3N)cc2)[C@@H](C)CN([C@H](C)CO)C(=O)c2cc(NS(=O)(=O)c3ccccc3)ccc2O1`?
A: cytotoxicity call (HSkMC): inactive; cytotoxicity call (HepG2): inactive; growth inhibition call (S. aureus RN4220): inactive

Q: With `O=C(C[C@@H]1C=C[C@@H](NS(=O)(=O)c2ccccc2F)[C@@H](CO)O1)NCCCN1CCOCC1` as the compound, how does the cytotoxicity call (HSkMC) read?
A: The cytotoxicity call was “inactive”.

Q: What about the cytotoxicity call (HepG2) of the same compound?
A: Its cytotoxicity call is “inactive”.

Q: And the growth inhibition call (S. aureus RN4220)?
A: The growth inhibition call was “inactive”.

Q: With `Nc1ncccc1F` as the compound, how does the cytotoxicity call (HSkMC) read?
A: The cytotoxicity call was “inactive”.

Q: What about the cytotoxicity call (HepG2) of the same compound?
A: The cytotoxicity call was “inactive”.

Q: What about the growth inhibition call (S. aureus RN4220) of the same compound?
A: The growth inhibition call was “inactive”.

Q: What does the source list for `C[C@H]1CCCCO[C@@H](CN(C)C(=O)CCC(F)(F)F)[C@@H](C)CN([C@@H](C)CO)C(=O)c2cc(NC(=O)C3CCCCC3)ccc2O1`?
A: cytotoxicity call (HSkMC): inactive; cytotoxicity call (HepG2): inactive; growth inhibition call (S. aureus RN4220): inactive

Q: What does the source list for `C[C@@H]1CCCCO[C@H](CN(C)C(=O)C2CCCCC2)[C@@H](C)CN([C@H](C)CO)C(=O)c2cc(NC(=O)Cc3ccccc3)ccc2O1`?
A: cytotoxicity call (HSkMC): inactive; cytotoxicity call (HepG2): inactive; growth inhibition call (S. aureus RN4220): inactive

Q: How did the cytotoxicity call (HSkMC) turn out when `C[C@@H]1CCCCO[C@@H](CN(C)S(=O)(=O)c2cccs2)[C@H](C)CN([C@H](C)CO)C(=O)c2cc(NS(=O)(=O)c3cn(C)cn3)ccc2O1` was run?
A: Its cytotoxicity call is “inactive”.

Q: And the cytotoxicity call (HepG2)?
A: Its cytotoxicity call is “inactive”.

Q: And the growth inhibition call (S. aureus RN4220)?
A: The growth inhibition call was “inactive”.

Q: With `COc1ccc(NC(=O)N(C)C[C@H]2Oc3ccc(NC(=O)CCCCCC(=O)Nc4ccccc4N)cc3C(=O)N([C@@H](C)CO)C[C@@H]2C)cc1` as the compound, how does the cytotoxicity call (HSkMC) read?
A: The cytotoxicity call was “inactive”.

Q: And the cytotoxicity call (HepG2)?
A: The cytotoxicity call was “inactive”.

Q: And the growth inhibition call (S. aureus RN4220)?
A: The growth inhibition call was “inactive”.

Q: `COc1ccc(NC(=O)N(C)C[C@H]2OCCCC[C@@H](C)Oc3ccc(NS(=O)(=O)c4c(C)noc4C)cc3C(=O)N([C@@H](C)CO)C[C@H]2C)cc1` was tested. Which cytotoxicity call (HSkMC) did it give?
A: The cytotoxicity call was “inactive”.

Q: What about the cytotoxicity call (HepG2) of the same compound?
A: Its cytotoxicity call is “inactive”.

Q: And the growth inhibition call (S. aureus RN4220)?
A: Its growth inhibition call is “inactive”.
